Patent US12116397B2, “IL-IR-I binding polypeptide” (Swedish Orphan Biovitrum AB (publ), priority 2017, dated 2024)

Key:
hIL-1R-I = target: T1, hIL-1R-I (Homo sapiens, UniProt P14778); test: Biacore affinity/kinetic analysis of His6-tagged Z variants, human IL-1R-I; assay type: binding
T1 construct: purchased R&D Systems 269-1R/CF
T1 sequence (P14778 18-569): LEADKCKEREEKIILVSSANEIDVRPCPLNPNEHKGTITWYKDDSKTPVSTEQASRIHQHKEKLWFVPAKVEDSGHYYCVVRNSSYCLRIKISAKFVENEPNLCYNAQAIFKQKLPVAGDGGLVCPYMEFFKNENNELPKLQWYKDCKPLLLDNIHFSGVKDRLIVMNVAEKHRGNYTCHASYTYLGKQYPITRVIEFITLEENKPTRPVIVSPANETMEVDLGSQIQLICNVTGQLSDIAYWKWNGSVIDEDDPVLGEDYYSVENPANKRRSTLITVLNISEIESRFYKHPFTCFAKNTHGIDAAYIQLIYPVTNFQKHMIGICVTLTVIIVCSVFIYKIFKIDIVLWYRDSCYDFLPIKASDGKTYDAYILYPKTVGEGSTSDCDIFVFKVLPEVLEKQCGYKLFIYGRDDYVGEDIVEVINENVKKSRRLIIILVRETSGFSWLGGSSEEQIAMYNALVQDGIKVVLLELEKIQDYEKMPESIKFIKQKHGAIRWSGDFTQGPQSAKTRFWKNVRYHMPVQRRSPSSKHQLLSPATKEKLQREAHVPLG
Protocol: Affinities (KD) for human and cynomolgus IL-1R-I were determined for His6-tagged Z variants using a Biacore 2000 instrument (GE Healthcare). hIL-1R-I or cIL-1R-I-His6 was immobilized on the carboxylated dextran layer in different flow cells of a CM5 chip (GE Healthcare, cat. no. BR100012). The immobilization was performed using amine coupling chemistry according to the manufacturer's protocol. Acetate pH 4.5 (GE Healthcare, cat. no. BR100350) was used for ligand dilution and HBS-EP (GE Healthcare, cat. no. BR100188) was used as running buffer. One flow cell surface on the chip was activated and deactivated for use as blank during analyte injections. In the kinetic experiment, HBS-EP was used as running buffer, the flow rate was 50 μl/min and the temperature was 25° C. The analytes, i.e. the Z variants, were each diluted in HBS-EP buffer to final concentrations of 40 nM and 10 nM, and were injected over the target chip surfaces for 2 min, followed by dissociation in running buffer for 8 min. Kinetic constants were calculated from the obtained sensorgrams using a 1:1 binding model, in the BiaEvaluation software 4.1 (GE Healthcare).
The kinetic constants (kon and koff) and affinities (KD) for human and cynomolgus IL-1R-I were determined for His6-tagged Z variants using a Biacore 2000 instrument (GE Healthcare). The experiment was run essentially as described in Example 2, using 100, 10 and 1 nM of the Z variants. The analyte injection time was 3 min followed by 15 min dissociation and 2×5 s glycine pH 3.0 (GE Healthcare, cat. no. BR100357), supplemented with 0.5 M NaCl, was used for regeneration of the surfaces between the cycles. Kinetic constants were calculated from the obtained sensorgrams of two or three concentrations of the respective Z variant, using a 1:1 binding model in the BiaEvaluation software 4.1 (GE Healthcare). His6-tagged Z12967 was included in the assay for comparison.
The kinetic constants (kon and koff) and affinities (KD) for human and cynomolgus IL-1R-I were determined for His6-tagged Z variants using a Biacore 2000 instrument (GE Healthcare). The experiment was run essentially as described in Example 5, using 48, 12, 3 and 0.75 nM of the Z variants. The analyte injection time was 3 min followed by 6 min dissociation and 2×5 s glycine pH 3.0, supplemented with 0.5 M NaCl, was used for regeneration of the surfaces between the cycles. Kinetic constants were calculated from the obtained sensorgrams of three or four concentrations of the respective Z variant, using a 1:1 binding model in the BiaEvaluation software 4.1 (GE Healthcare). His6-tagged Z12967 (SEQ ID NO:9), Z16065 (SEQ ID NO:268), Z16163 (SEQ ID NO:359) and Z18557 (SEQ ID NO:1205) were included in the assay for comparison.

TF-1 cells = test: In vitro IL-1β neutralization assay (TF-1 cell assay); assay type: cell-based
Protocol: The TF-1 cell line proliferates in response to many different cytokines including IL-1β. This cell line was used to assess the ability of primary IL-1R1 binders to inhibit IL-1β actions. TF-1 cells were maintained in RPM11640 with L-glutamine (Lonza) supplemented with 10% FCS (Gibco), Penicillin-Streptomycin (Lonza) and 2 ng/ml rhGM-CSF (R&D Systems). Prior to use, cells were washed twice in RPM11640 without rhGM-CSF. Cells were then counted and dispensed into 96 well flat bottomed plates at a density of 3×10^4 cells per well. In separate plates, serial dilutions of the inhibitory binders; His6-tagged IL-1R-I binding Z variants, with a concentration range of 400-0.1 nM, or the IL-1R-I binding protein Kineret (anakinra, Sobi), with a concentration range of 0.3-0.0003 nM, were incubated in the presence of 0.6 nM IL-1β (PeproTech). The pre-mixed complexes of the Z variant polypeptides and IL-13 were transferred to wells containing TF-1 cells. The cells were stimulated for 72 h at 37° C. in a humidified 5% CO2 atmosphere. During the last four hours of incubation, 19 μl of 2× diluted CCK-8 (Fluka, Sigma Aldrich), was added per well to determine the proliferative responses. The absorbance was measured at 450 nm using a microplate reader (Victor3, Perkin Elmer). The data on cell growth was assessed by non-linear regression to a four-parameter dose-response curve, and the half maximal inhibitory concentration (IC50) was determined using GraphPadPrism program.
His6-tagged IL-1R-I specific Z variants were tested for their inhibitory capacity in the TF-1 cell assay. The assay was run as described in Example 2. The data on cell growth was assessed by non-linear regression to a four-parameter dose-response curve, and IC50 values were determined using GraphPadPrism program. His6-tagged Z12967 was included for comparison.
His6-tagged IL-1R-I specific Z variants were tested for their inhibitory capacity in the TF-1 cell assay. The assay was run as described in Example 2. The data on cell growth was assessed by non-linear regression to a four-parameter dose-response curve, and IC50 values were determined using GraphPadPrism program. His6-tagged Z12967, Z16065, Z16163 and Z18557 were included for comparison.

[1] = Circular dichroism (CD) spectroscopy analysis, melting temperature and refolding; assay type: physicochemical; settings: for Melting temperatures (Tm): His6-tagged Z variants, CD variable temperature measurement; for Tm (° C.): His6-tagged Z variants 0.5 mg/ml in PBS, 221 nm, 20 to 90° C. (Example 2)
Protocol: Purified His6-tagged Z variants were diluted to 0.5 mg/ml in PBS. For each diluted Z variant, a CD spectrum at 250-195 nm was obtained at 20° C. In addition, a variable temperature measurement (VTM) was performed to determine the melting temperature (Tm). In the VTM, the absorbance was measured at 221 nm while the temperature was raised from 20 to 90° C., with a temperature slope of 5° C./min. A new CD spectrum was obtained at 20° C. after the heating procedure in order to study the refolding ability of the Z variants. The CD measurements were performed on a Jasco J-810 spectropolarimeter (Jasco Scandinavia AB) using a cell with an optical path length of 1 mm.
CD was analyzed for His6-tagged Z variants, as described in Example 2.

[2] = His6-Z polypeptides binding to human IL-1R-I, Biacore, Table 19
[3] = His6-Z polypeptides binding to human IL-1R-I, Biacore, Table 19, read-out: KD
[4] = His6-Z polypeptides, IL-1β inhibition in TF-1 cell assay, Table 20 (Example 9)
[5] = His6-Z polypeptides, 100, 10 and 1 nM (Example 5)
[6] = His6-Z polypeptides, 100, 10 and 1 nM (Example 5), read-out: KD
[7] = His6-Z polypeptides, IL-1β inhibition in TF-1 cell assay, Table 12 (first matured library)
[8] = His6-Z polypeptides, Biacore 2000, 25° C., 40 nM and 10 nM (Example 2), read-out: Human IL-1R-I KD
[9] = His6-Z polypeptides, 0.6 nM IL-1β, 72 h (Example 2)

Substance	koff (hIL-1R-I; [2]) [s⁻¹]	kon (hIL-1R-I; [2]) [M⁻¹ s⁻¹]	Kd (hIL-1R-I; [3]) [nM]	Melting temperatures (Tm) ([1]; Table 21) [°C]	koff (hIL-1R-I; [5]) [s⁻¹]	kon (hIL-1R-I; [5]) [M⁻¹ s⁻¹]	Kd (hIL-1R-I; [6]) [nM]	IC50 (TF-1 cells; [7]) [nM]	Melting temperatures (Tm) ([1]; Table 13) [°C]	Kd (hIL-1R-I; [8]) [nM]	IC50 (TF-1 cells; [9]) [nM]	Tm (° C.) [1] [°C]	also measured
Z18874: IL-1R-I binding Z variant (VDAKYAKELEAIQMEIFHLPNLTRRQYTAFIRKLLDDPSQSSELLSEAKKLNDSQAPK; Engineered IL-1R-I binding polypeptide)	0.0052	4.9e+07	0.11	61	–	–	–	–	–	–	–	–	IC50 (TF-1 cells; [4]): 0.3 nM
Z15876: IL-1R-I binding Z variant (VDAKYAKEIEAAQMEIFGLPNLTRKQYTAFIRKLFDDPSQSSELLSEAKKLNDSQAPK; Engineered IL-1R-I binding polypeptide)	0.0041	5.2e+06	0.8	55	0.0013	2.1e+06	0.62	2.4	55	–	–	–	–
Z16127: IL-1R-I binding Z variant (VDAKYAKEIEIAQMEIFGLPNLTRKQYTAFIRKLLDDPSQSSELLSEAKKLNDSQAPK; Engineered IL-1R-I binding polypeptide)	–	–	–	–	0.0019	6.7e+06	0.29	4.1	59	–	–	–	–
Z12884: IL-1R-I binding Z variant (VDAKYAKEASLAQHEIFALPNLTRKQYTAFIRKLFDDPSQSSELLSEAKKLNDSQAPK; Engineered IL-1R-I binding polypeptide)	–	–	–	–	–	–	–	–	–	18	27	49	–
Z16377: IL-1R-I binding Z variant (VDAKYAKETERAQMEIFYLPNLTRKQYTAFIRKLLDDPSQSSELLSEAKKLNDSQAPK; Engineered IL-1R-I binding polypeptide)	–	–	–	–	0.0011	2.1e+06	0.54	3.1	52	–	–	–	–
Z12895: IL-1R-I binding Z variant (VDAKYAKEALSAQQEIFALPNLTRRQYTAFIRKLLDDPSQSSELLSEAKKLNDSQAPK; Engineered IL-1R-I binding polypeptide)	–	–	–	–	–	–	–	–	–	5.5	7.1	55	–
Z15975: IL-1R-I binding Z variant (VDAKYAKEVETAQMEIFVLPNLTRKQYTAFIRKLLDDPSQSSELLSEAKKLNDSQAPK; Engineered IL-1R-I binding polypeptide)	0.029	4.1e+07	0.71	59	–	–	–	–	–	–	–	–	IC50 (TF-1 cells; [4]): 3.3 nM
Z16065: IL-1R-I binding Z variant (VDAKYAKEVEEAQMEIFALPNLTRRQYTAFIRKLLDDPSQSSELLSEAKKLNDSQAPK; Engineered IL-1R-I binding polypeptide)	–	–	–	–	0.0013	6.9e+06	0.19	1.7	59	–	–	–	Kd (hIL-1R-I; His6-tagged, 48, 12, 3 and 0.75 nM, comparison variants (Example 9), read-out: KD to human IL-1R-I): 0.51 nM; IC50 (TF-1 cells; His6-tagged, TF-1 cell assay, comparison variants (Example 9)): 3.3 nM
Z15961: IL-1R-I binding Z variant (VDAKYAKEVETAQMEIFALPNLTRKQYTAFIRKLFDDPSQSSELLSEAKKLNDSQAPK; Engineered IL-1R-I binding polypeptide)	–	–	–	–	0.002	4.3e+06	0.46	2.9	59	–	–	–	–
Z12922: IL-1R-I binding Z variant (VDAKYAKEDEQAQLEIFNLPNLTRRQYTAFIRKLLDDPSQSSELLSEAKKLNDSQAPK; Engineered IL-1R-I binding polypeptide)	–	–	–	–	–	–	–	–	–	9.8	66	47	–

Read-outs that look alike come from different tables or passages of the source.
